Read counts are not given, so values of variants with three or more changes are uncertain.
B1: LINE1-full (parent)
chain: UACGUAGGUGGUUUUCCCCUGAUAGUGCUAAGGGGGCCUGGAAGUUUGGACUGGGCAGAGCUCAACACAGCGUGGCAAAGUGGCUGUGGCUAGACUGCCUCUCUGGAUUCCUCGUCACUCAGCAGGGCAUCUCUGAGAGAAAUGCC

Variants of: B1
Experiment: self-cleavage, relative activity (ratio to wild type); higher = more cleavage; in vitro, sequencing; the parent is a self-cleaving ribozyme
Work on UACGUAGGUGGUUUUCCCCUGAUAGUGCUAAGGGGGCCUGGAAGCUUGGACUGGGCAGAGCUCAACACAGCGUGGCAAAGUGGCAGUGGCUAGACUGCCUCUCUGGAUUCCUCGUCACUCAGCAGGGCAUCUCUGAGAGUAAUGCC [U45C U85A A140U] yielded a self-cleavage of 0.08. UACGUAGGUGGCUUUCCCCUGAUAGUGCUAAGGGGGCCUGGAGGUUUGGACUGGGCAGAGCUCAACACAGCGUGGCAAAGUGGCUGUGGCUAGACAGCCUCUCUGGAUUCCUCGUCGCUCAGCAGGGCAUCUCUGAGAGAAAUGCC [U12C A43G U96A A117G] gave a self-cleavage of 0.14. With UACGUAGGUGGUUCUCCCUUGAUAGUGCUAAGGGGGCCUGGAAGUUUGGACUGGACAGAGCUCAACACAGCGUGGCAAAGUGGCUGUGGCUAGACUGCCUCUCUGGAUUCCUCGUCACUCAGCAGGGCAUCUCUGAGAGAAAUGCC [U14C C19U G55A] the self-cleavage was 0.14. Variant UACGUAGGUGGUUUUCCCCUGAUAGUGCUAAGGGAGCCUGGAAGUAUGGACUGGGCAGAGCUCAACACAGCGUGGCAAAGUGGCUGUGGCUAGACUGCCUCUCUGGAUUCCUCGUCACUCAGCAGGGCAUCACUGAGAGAAAUGCC [G35A U46A U132A] has a self-cleavage of 1.03. Work on UACGUAGGUGGUUUUCCCCGGAUAGUGCUAAGGGGGCCUGGAAGUAUGGACUGGGCAGAGCUCAACACUGCGUGGCAAAGUGGCUGUGGCUAGACUGCCUCUCUGGAUUCCUCGUCACUCAGCAGGGCAUCUCUGAGAGAAAUGCC [U20G U46A A69U] yielded a self-cleavage of 0.03. With UACGUAGGUGGUUUUCCCCUGAUAGUGCUAAGGGGGCCUGGAAGUUUGGACUGGGCAGAGCUCAACACAGCGUGGCAGAGUGGCUGAGGCUAGACUGCCUCUCUGGACUCCUCGUCACUCAGCAGGGCAUCUCUGAGAGAAAUGCC [A78G U87A U108C] the self-cleavage was 0.09. In the case of UACGUAGGUGGGUUUCCCCUGAUAGUGCUAAGGGGGCCUGGAAGUUUGGACUGGGCAGAGCUCUACACAGCGUGGCAAAGUGGCUGUGGCUAGACUGCCUCUCUGGAUUCCCCGUCACUCAGCAGGGCAUCUCUGAGAGAAGUGCC [U12G A64U U112C A142G], the self-cleavage is reported as 0.76. Work on UACGUAGGUGGUUUUCCCCUGAUAGUGCUAAGGGGGCCUGGAAGUUUGGACUGGGCAGAGCUCAACACAGCGUGGCAAAGUGGCUGUGGCUAGACUGCCUCUCUGGAUUCCUCGUCACUCAGCAGGGCAACUCUGAGAGAAGAGCC [U130A A142G U143A] yielded a self-cleavage of 0. UACGUUGGUGGUUUUCCCCUGAUAGUGCUAAGGGGGCCUGGAAGCUUGGACUGGGCAGAGCUCAACACAGCGUGGCAAAGUGGCUGUGGCUAGACUGCCUCUCUGGAUUCCUCGUCACUCAGCGGGGCAUCUCUGAGAGAAAUGCC [A6U U45C A124G] gave a self-cleavage of 0.31. With CACGUAGGUGGUUUUCCCCUGAUAGUGCUAAGGGGGCCUGGAAGUUUGGACUGGGCAGAGCUCAACACAGCGUGGCAAAGUGGCUGUGACUAGACUGCCCCUCUGGAUUCCUCGUCACUCAGCAGGGCAUCUCUGAGAGAAAUGCC [U1C G89A U100C] the self-cleavage was 0. Work on UACGUAGGUGGUUUUCCCCUGAUAGUGCUAAGGGGGCCUGGAAGUUUGGACUGGGCAGAGCUCAACACUGCGUGGCAAAGUGGCUGCGGCUAGACUGCCCCUCUGGGUUCCUCGUCACUCAGCAGGGCAUCUCUGAGGGAAAUGCC [A69U U87C U100C A107G A138G] yielded a self-cleavage of 0. For UACGUAGGUGGUUUUCCCCUGAUAGUGCUAACGGGGCCUGGAAGUUUGGACUGGGCAGAGCUCAACACAGCGUGGCAAAGUGGCUGUGGCUAGACUGCCUCUCUGGAUUCCUCGUCACCCAGCAGGGCAUCUCUGAGGGAAAUGCC [G32C U119C A138G], the self-cleavage was 1.64. Variant UACGUAGGUGGUUUUCCCCUGAUAGUGCUAAGGGGGCCUGGGAGUUUGGACUGGGCAGAGCUCAACACAGCGUGGCAAAGUGGCUGUGGCUAGGCUGCCCAUCUGGAUUCCUCGUCACUCAGCAGGGCAUCCCUGAGAGAAAUGCC [A42G A94G U100C C101A U132C] has a self-cleavage of 0. Variant UACGUAGGUGGUUCUCCCCUGAUAGUGCUAAGGGGGCCUGGAAGUUUGGACUGGGCAGAGCUCAACACAGCGUGGCAAAGUGGCUGUGGCUAGACUGCCUCUCUGGAUUCCUCGUCACUCAGCAGGGCAUCACUGUGAGAAAUGCC [U14C U132A A136U] has a self-cleavage of 1.26. For UACGUAGGGGGUUUUCCCCUGAUAGUGCUAAGGGGGCCUGGAAGUUUGGACUAGGCAGAGCUCAACACAGCGUGGCAAAGUGGCUGUGGCUAGACUGCCUCUCUGGAUUCCUCGUCACUCAGCAGGGCUUCUCAGAGAGAAAUGCC [U9G G53A A129U U134A], the self-cleavage was 0.42. With UACGAAGGUGGUUUUCCCCUGAUAGUGCAAAGGGGGCCUGGAAGUUUGGACUGGGCAGAGCUCAACACAGCGUGGCAAAGUGGCUGUGGCUAGACUGCCUCUCCGGAUUCCUCGCCACUCAGCAGGGCAUCUCUGAGAGAAAUGCC [U5A U29A U104C U115C] the self-cleavage was 0. Variant UACGUAGGUGGUUUCCCCCUGAUAGUGCAAAGGGGGCCUGGGAGUUUGGACUGGGCAGAGCCCAACACAGCGUGGCAAAGUGGCUGUGGCUUGACUGCCUCUCUGGAUACCUCGUCACUCAGCAGGGCAUCUCUGAGAGGAAUGCC [U15C U29A A42G U62C A92U U109A A140G] has a self-cleavage of 0. UACGUAGGUGGUUUUCCCCCGAUAGUGCUAAGGGGGCCUGGAAGUUUGGACUGGGCAGAGCUCAACACAGCGUGGCAAAGUGGCUGUGGCUAGACUGCCUCUCUGGAUUCCUUGUCACUCAGCAGGGCAUCUCUGAGGGAAGUGCC [U20C C113U A138G A142G] gave a self-cleavage of 1.63. With UACGUAGGUGGUUUUCCCCUGAUAGUGCUAAGGGGGCCUGGAAGUUUGGACUGGGCAGAGCUCAACACAGCGUGGCAAAGUGGCAGUGGCUAGACUUCCUCUCUGGAUCCCUCGUCACUCAGCAGGGCAUCUCUGAGAGAAAUGCC [U85A G97U U109C] the self-cleavage was 0.2. In the case of UACGUAGGUGGUUUUCCCCUGAUAGUGCUAAGGGGGCCCGGAAGUUUGGACUGGGCGGAGCUCAACACAGCGUGGCAAAGUGGCUGUGGCUAGACUGCCUCUCUGGACUCCUCGUCACUCAGCAGGGCAUCUCUGAGAGAAAUGCC [U39C A57G U108C], the self-cleavage is reported as 1.84.

— the RNAGym collection of RNA variant scans (doi:10.7554/elife.90254)
